Reference: patent US20240376128A1, “N-CYCLOPROPYLPYRIDO [4, 3-D] PYRIMIDIN-4-AMINE DERIVATIVES AND USES THEREOF” (Jacobio Pharmaceuticals Co., Ltd., priority 2021, published 2024)

How the values were obtained:
K-Ras WT [1] = molecular target: T1, K-Ras WT (Homo sapiens, UniProt P01116); test: SOS1 catalyzed nucleotide exchange assay (GDP form K-Ras), TR-FRET; conditions: read-out: Biochemical assays, IC50, K-Ras WT GDP
Experimental: The parameters were F486: Excitation 340 nm, Emission 486 nm, Lag time 100 pas, Integration time 200 pas; F515: Excitation 340 nm, Emission 515 nm, Lag time 100 pas, Integration time 200 pas. TR-FRET ratios for each individual wells were calculated by equation: TR-FRET ratio=(Signal F515/Signal F486)*10000.

K-Ras WT [2] = molecular target: T1, K-Ras WT; test: GTP-K-Ras (GppNp-K-Ras) and cRAF interaction assay, HTRF; conditions: read-out: Biochemical assays, IC50, K-Ras WT GppNp
Source text: GppNp is an analog of GTP.

| SMILES | IC50 (K-Ras WT [1]) | IC50 (K-Ras WT [2]) |
| --- | --- | --- |
| C#Cc1c(F)ccc2cc(O)cc(-c3ncc4c(NC5CC5)nc(OC[C@@]56CCCN5C[C@H](F)C6)nc4c3F)c12 [Compound 18, 4-(4-(cyclopropylamino)-8-fluoro-2-(((2R,7aS)-2-fluorotetrahydro-1H-pyrrolizin-7a(5H)-yl)methoxy)pyrido[4,3-d]pyrimidin-7-yl)-5-ethynyl-6-fluoronaphthalen-2-ol formic acid] | 6.59 nM | 2140 nM |
| C#Cc1c(F)ccc2cc(O)cc(-c3ncc4c(N(C)C5(C)CC5)nc(OC[C@@]56CCCN5C[C@H](F)C6)nc4c3F)c12 [Compound 19] | 55 nM |  |
